For experiment [1], the target named is Mad2^WT (wild-type human Mad2, untagged) (human) (UniProt Q13257). The experiment in a line: SEC; untagged 13C-labelled O-Mad2 incubated with buffer for 30 min at 37 °C, then gel filtration at 4 °C; fractions on Coomassie-stained SDS-PAGE.
Experiment [2] shares this target. The experiment in a line: SEC; gel filtration of the high-salt peak (Q2) of anion exchange chromatography (holds the C-Mad2 conformer). Background: Size exclusion chromatography separates by hydrodynamic size, large species first.

By stoichiometry N is commonly meant the number of molecules, sites or subunits per partner or assembly.

As to “Mad2^WT (wild-type human Mad2, untagged) (a stretch of the chain, sequence not shown) (natural protein; other documents disagree on this pair)”, the percent of Mad2 that formed dimers in experiment [1] worked out at 40%. In addition, the stoichiometry N in experiment [2] is 2.

The values above are taken from PMC2270309.
